Test results: PubChem BioAssay AID493208 (National Center for Advancing Translational Sciences (NCATS), 2011)
About 340 (0.77%) of roughly 44,000 compounds were called active. Another 5% or so got no clear call; they are omitted. Calls come from the whole dose curve; as a rule, active = well fitted inhibition curve with a large enough effect; inconclusive = small, poorly fitted or top-dose-only effect; inactive = flat fitted curve, though single readings scatter. The list shows a part of the results.

experiment: Acumen qHTS Assay for Inhibitors of the mTORC1 Signaling Pathway in MEF (Tsc2-/-, p53-/-) Cells: Sytravon; settings: phospho-rpS6 immunofluorescence/PI, 24 h; series mostly up to 38.3 µM; activity change, negative = inhibition: at the top concentration;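 note: plate controls were DMSO for no effect and rapamycin for full effect; nearly all actives have a fitted effect of over 50% in size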
In short: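 Read-out: phospho-S6 Alexa-488 intensity over PI intensity per well, scored as % active cells using thresholds from rapamycin (7.5 nM) and DMSO controls. Tsc2-/-, p53-/- MEFs exposed to compound for 24 h; PI cell count recorded as viability.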

Activity change, negative = inhibition, inactive:
O=C(Nc1ccc(S(=O)(=O)N2CCC(c3nc4ccccc4s3)CC2)cc1)c1ccc(F)cc1 2.36%, Cc1cc(C)c(S(=O)(=O)NCCc2cc3c(C)ccc(C)c3[nH]c2=O)c(C)c1 -13.4%, Cc1ccc(NC(=O)C2Cc3ccccc3N2C(=O)c2ccccc2)cc1Cl (centres undefined) 0%, CCCC(=O)NCCc1nc2ccccc2n1Cc1c(F)cccc1Cl 9.79%, Cc1ccc(C)c(-n2nnc(-c3nc(-c4ccc(Cl)cc4)no3)c2N)c1 -8.25%, COc1ccc(NC(=O)c2sc3nc(C)c(C(=O)Nc4ccc(C)cc4C)c(-c4ccc(Cl)cc4)c3c2N)cc1 2%, O=C(NCc1ccc2c(c1)CCN2C(=O)c1ccncc1)c1cccc(Cl)c1 -0.296%, COc1ccc(OC)c(NC(=O)CSC2=Nc3ccccc3C3=NC(CC(=O)NCc4ccco4)C(=O)N23)c1 (centres undefined) 2.1%, N#Cc1ccc(C(=O)Nc2ccc(Cl)c(-c3nc4cc(Cl)ccc4o3)c2)c(F)c1 -16%, Cc1oc(-c2ccccc2F)nc1CS(=O)(=O)CC(=O)N1CCN(c2cccc(C(F)(F)F)c2)CC1 -1.31%, CCN(C(=O)c1nn(-c2ccc(OC)c(Cl)c2)c(=O)c2c1c1ccccc1n2C)c1cc(OC)ccc1OC -12.4%, Cc1ccc(NC(=O)c2cccc(NC(=O)N3CCSc4ncccc43)c2)cc1Cl -9.49%, COc1ccc(N2CCN(C(=O)Cn3ncc4c3-c3cc(C)ccc3OC4)CC2)cc1 -3.15%, COc1ccc(-c2nc3sc(CCNC(=O)C(=O)Nc4cc(C)cc(C)c4)c(C)n3n2)cc1 -0.267%, COc1cc(OC)cc(C(=O)Nc2cc(-c3nc4ccccc4s3)ccc2OC)c1 -0.759%, Cc1ccc(C(=O)NCC(c2cccs2)S(=O)(=O)c2cccs2)cc1C (centres undefined) 0.582%, CCOc1ccc(NC(=O)CN(C)S(=O)(=O)c2ccc3c(c2)c(=O)n(C)c(=O)n3C)cc1 -13.5%, COc1ccc(C(=O)NCC(c2cccnc2)N2CCN(c3ccc(F)cc3)CC2)cc1 (centres undefined) -1.45%, O=C(NCC(c1ccc(Cl)cc1)N1CCCCC1)c1ccc(F)cc1 (centres undefined) -2.27%, Nc1nc(N)c(S(=O)(=O)c2ccccc2)c(Nc2ccc(Br)cc2)n1 -7.01%, COc1cccc(-c2cc(C(F)(F)F)nc(-n3nc(C)c(Br)c3C)n2)c1 -11.9%, Cc1ccc(-n2c(SCc3ccccc3F)nc3[nH]ncc3c2=O)cc1C -9.64%, COc1ccccc1CNC(=O)c1cccn1-c1nnc(N2CCCC2)s1 6.34%, O=C(CSc1ccc2nc(-c3ccccc3)cn2n1)Nc1ccccc1C(F)(F)F -1.25%, Cc1cccc(NC(=O)C(=O)c2cc(C)n(-c3ccccc3)c2C)c1C -0.754%, CCOc1cccc2cc(-c3nc4sc(C(=O)Nc5ccc(C)cc5)c(C)c4c(=O)[nH]3)c(=O)oc12 2.77%, O=C(Nc1cccc(C(F)(F)F)c1)c1noc2c1CCc1ccccc1-2 -2.88%, CC(=O)c1cc(-c2ccccc2)n(CC(=O)NC2CCCCCC2)c1C -4.79%, COc1ccc(N2CCN(C(=O)CSCc3nc(-c4ccccc4Cl)oc3C)CC2)cc1 0.974%, CCc1nc(-c2cc(S(=O)(=O)N3CCN(c4ccc(F)cc4)CC3)ccc2OC)no1 0.241%, CN(C1CCCCC1)S(=O)(=O)c1ccc(C(=O)Nc2sc3c(c2C(N)=O)CC(C)(C)NC3(C)C)cc1 7.61%, Cc1cc(O)c(C(c2cccc(F)c2)N2CCC(C)CC2)c(=O)n1Cc1ccco1 (centres undefined) -11.5%, O=C(Cn1c(=O)n(Cc2cccs2)c(=O)c2cccnc21)Nc1ccccc1F -0.363%, O=C(NCCc1ccc(Cl)cc1)c1cccn1-c1nnc(N2CCCCC2)s1 10.6%, Cc1cccc(NC(=O)CSc2nc3c(c(=O)[nH]2)CN(Cc2ccc4c(c2)OCO4)CC3)c1C 5.62%, CNC(=O)c1ccc(Nc2nnc(-c3ccc(C)c(S(=O)(=O)NC(C)(C)C)c3)c3ccccc23)cc1 3.76%, CCc1ccc(-n2c(=O)c3cccnc3n2CC(=O)NCc2ccc(F)cc2)cc1 6.91%, COc1ccccc1NC(=O)CCN1CCC(C(N)=O)CC1 -6.44%, CCOC(=O)N1CCc2c(sc3c2c(=O)n(Cc2ccccc2)c(=O)n3CC(=O)Nc2c(C)cccc2C)C1 -10.4%, Cn1c(=O)c(=O)n(C)c2cc(S(=O)(=O)N3CCN(c4ccccc4F)CC3)ccc21 -21.9%, COc1ccc(CCNC(=O)Cc2c(C)c3cc(OC)c(OC)cc3oc2=O)cc1 -3%, Cc1cccc(C)c1OCC(=O)Nc1nonc1-c1ccc(Br)cc1 5.12%, Cc1ccc(C(=O)Nc2ccc(-n3c(C)nc4ccccc4c3=O)cc2)cc1[N+](=O)[O-] -0.872%, O=C(Nc1nc2n(n1)C(c1ccc(F)cc1)C=C(c1ccc(Cl)cc1)N2)c1ccco1 (centres undefined) 0.754%, CCN(C(=O)CCS(=O)(=O)c1cccc2nsnc12)c1cccc(C)c1 -25.4%, CCOc1ccc2oc(=O)cc(CN3CCN(c4ccc(OC)cc4)CC3)c2c1 -0.894%, CCN(C(=O)c1cc2c(s1)-c1c(C)cccc1OC2)c1cc(C)ccc1C 0.967%, COc1ccc(OC)c(NC(=O)Cn2c(=O)oc3cc(S(=O)(=O)NCc4ccccc4)ccc32)c1 1.43%, O=C(NCC12CC3CC(CC(C3)C1)C2)c1cc2nc(-c3ccc(Cl)cc3)cc(C(F)(F)F)n2n1 -2.38%, Clc1cccc(-c2nnc(CN3CCN(c4ccccn4)CC3)o2)c1 0.693%, CC(C)NC(=O)Cn1ncn2c(cc3cc(F)ccc32)c1=O -1.22%, CCc1nc2ccc(C(=O)NCCc3ccc(SC)cc3)cc2nc1CC 0.0007%, COC(=O)c1c(SCC(=O)Nc2cccc(C(F)(F)F)c2)[nH]c2ccccc2c1=O -0.896%, COc1ccc(NC(=O)C(CC(C)C)NC(=O)C2CCCCC2)c(OC)c1 (centres undefined) 1.16%, Cc1cc(S(=O)(=O)Nc2cc3c(cc2N2CCOCC2)n(C)c(=O)n3C)ccc1F 1.56%, COc1ccc(NC(=O)C2CCN(C(=O)c3sc4nc[nH]c(=O)c4c3C)CC2)c(OC)c1 -7.18%, Cc1cccc(N2CCN(c3nc4ccccc4c4nc(-c5ccccc5)nn34)CC2)c1C -6.91%, CC(=O)OCc1cnc(C)c2oc(=O)c(C(=O)Nc3ccc(F)cc3C)cc12 3.56%, CCc1ccccc1N1CC(c2nnc(NC(=O)c3ccco3)s2)CC1=O (centres undefined) -9.25%
